Publication PMC4336329 (PLoS ONE, 2015)
The campaign covered roughly 310,000 compounds. About 14,000 (4.5%) showed an effect of 50% or more. The effect is printed as a negative number. The list shows a part of the results.
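Further: peak tail current of the secondary pulse compared with the same well before compound.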

The compounds below were run against human ether-à-go-go-related gene (hERG) potassium channel (human, UniProt Q12809) (assay: primary screen, population patch clamp on CHO cells stably expressing hERG).
Sequence of human ether-à-go-go-related gene (hERG) potassium channel (Q12809 whole entry, looked up): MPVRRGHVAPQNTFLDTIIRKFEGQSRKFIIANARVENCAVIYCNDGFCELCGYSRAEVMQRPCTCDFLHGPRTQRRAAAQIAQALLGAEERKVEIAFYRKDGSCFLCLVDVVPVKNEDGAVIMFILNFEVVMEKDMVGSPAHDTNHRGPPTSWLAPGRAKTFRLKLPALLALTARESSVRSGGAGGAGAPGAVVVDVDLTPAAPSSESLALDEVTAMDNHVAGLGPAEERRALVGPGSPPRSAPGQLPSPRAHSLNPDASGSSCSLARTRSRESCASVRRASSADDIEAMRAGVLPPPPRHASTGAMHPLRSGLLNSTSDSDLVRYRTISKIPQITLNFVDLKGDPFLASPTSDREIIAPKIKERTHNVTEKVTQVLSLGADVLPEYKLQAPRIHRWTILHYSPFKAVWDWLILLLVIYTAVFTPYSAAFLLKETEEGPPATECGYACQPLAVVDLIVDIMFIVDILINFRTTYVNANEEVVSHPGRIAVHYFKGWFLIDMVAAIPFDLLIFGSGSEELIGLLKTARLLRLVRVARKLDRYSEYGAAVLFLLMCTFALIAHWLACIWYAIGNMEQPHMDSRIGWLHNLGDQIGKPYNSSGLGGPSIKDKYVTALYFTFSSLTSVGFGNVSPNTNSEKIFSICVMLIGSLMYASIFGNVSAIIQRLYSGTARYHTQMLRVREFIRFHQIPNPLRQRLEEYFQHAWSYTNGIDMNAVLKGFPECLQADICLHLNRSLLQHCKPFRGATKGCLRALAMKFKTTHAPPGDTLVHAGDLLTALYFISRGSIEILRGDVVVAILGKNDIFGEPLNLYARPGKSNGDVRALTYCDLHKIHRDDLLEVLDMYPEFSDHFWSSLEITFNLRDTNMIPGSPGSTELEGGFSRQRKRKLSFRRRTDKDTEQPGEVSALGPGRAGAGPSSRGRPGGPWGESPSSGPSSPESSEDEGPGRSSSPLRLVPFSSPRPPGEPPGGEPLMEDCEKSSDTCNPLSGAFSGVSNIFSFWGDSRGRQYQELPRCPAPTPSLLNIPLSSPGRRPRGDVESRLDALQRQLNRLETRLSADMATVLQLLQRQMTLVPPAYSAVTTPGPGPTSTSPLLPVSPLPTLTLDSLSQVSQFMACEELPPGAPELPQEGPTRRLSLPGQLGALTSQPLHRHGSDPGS
`CCC1=C(OC(=O)N(CC)CC)N2C(=O)OC(=NCCc3c[nH]c4ccccc34)[C@]2(Cc2ccccc2)[C@H]2C1=CC[C@H]1C(=O)N(C)C(=O)[C@H]12` was tested, and the “hERG current change (%, negative = inhibition) at 10uM” value was 15.6%.
For `Cc1ccc(S(=O)(=O)N2CCOC2CNC(=O)C(=O)NCCN(C)C)cc1` (centres unmarked), the “hERG current change (%, negative = inhibition) at 10uM” value was 13.4%.
For `Cc1c(C(Nc2ccccn2)c2ccc(Cl)cc2)c(=O)n(-c2ccccc2)n1C` (centres unmarked), the “hERG current change (%, negative = inhibition) at 10uM” value was -18.6%.
With `O=C1CC(SC2=NCCS2)C(=O)N1c1ccc(Br)cc1` (centres unmarked) the “hERG current change (%, negative = inhibition) at 10uM” value was -3.52%.
With `NC(=O)c1cc(-c2csc(NCCc3ccccc3)n2)ccc1O` the “hERG current change (%, negative = inhibition) at 10uM” value was 6.05%.
For `CC(=O)c1cccc(N(C(=O)CNC(=O)c2cccs2)C(C(=O)NCC2CCCO2)c2ccccc2)c1` (centres unmarked), the “hERG current change (%, negative = inhibition) at 10uM” value was 12.1%.
In the case of `Cc1c(NC(=O)NCCN2C(=O)C3C4C=CC(C4)C3C2=O)c(=O)n(-c2ccccc2)n1C` (centres unmarked), the “hERG current change (%, negative = inhibition) at 10uM” value is reported as 7.63%.
In the case of `Clc1ccc(Nc2ccc(NCc3ccccc3)nn2)cc1`, the “hERG current change (%, negative = inhibition) at 10uM” value is reported as -37.8%.
`CC(=O)c1cccc2c(O)c(C3=Nc4ccccc4C3=O)[nH]c12` was tested, and the “hERG current change (%, negative = inhibition) at 10uM” value was -18.5%.
For `COc1ccc(Cl)cc1NC(=O)CN(C)CC(=O)NCc1cccs1`, the “hERG current change (%, negative = inhibition) at 10uM” value was -31.6%.
`COCc1cc(C)nc(SCc2ccccc2)c1C#N` was tested, and the “hERG current change (%, negative = inhibition) at 10uM” value was 21.2%.
For `Clc1ccc(/C=N/Nc2nn[nH]n2)cc1`, the “hERG current change (%, negative = inhibition) at 10uM” value was 12.6%.
In the case of `COc1ccccc1NC(=O)COC(=O)CC(C)(C)CC1=NS(=O)(=O)c2ccccc2N1`, the “hERG current change (%, negative = inhibition) at 10uM” value is reported as -69.9%.
For `Nc1cc(=O)[nH]c(SCCSc2cc(Cl)ccc2Cl)n1`, the “hERG current change (%, negative = inhibition) at 10uM” value was 8.3%.
For `O=C(O)c1cccc(NC(=O)C2C3C=CC(C3)C2C(=O)O)c1` (centres unmarked), the “hERG current change (%, negative = inhibition) at 10uM” value was 32.6%.
`O=C(CSc1nc(C(F)(F)F)cc(=O)[nH]1)Nc1nccs1` was tested, and the “hERG current change (%, negative = inhibition) at 10uM” value was 18.5%.
For `CCOC(=O)C1(CC2CCCCO2)CCN(C(=O)Nc2ccc(SC)cc2)CC1` (centres unmarked), the “hERG current change (%, negative = inhibition) at 10uM” value was 2.65%.
With `O=C(CN1CCOCC1)Nc1cc([N+](=O)[O-])ccc1Cl` the “hERG current change (%, negative = inhibition) at 10uM” value was -17%.
In the case of `Cc1cccc(NC(=O)CSc2nc(C)c(Cc3ccccc3)c(=O)[nH]2)c1`, the “hERG current change (%, negative = inhibition) at 10uM” value is reported as 18.5%.
In the case of `COc1ccccc1NC(=O)CN1CCN(CC(=O)Nc2cc(NC(C)=O)ccc2OC)CC1`, the “hERG current change (%, negative = inhibition) at 10uM” value is reported as -50.3%.
For `CN(Cc1ccccc1)S(=O)(=O)c1nnc(NC(=O)c2ccccc2)s1`, the “hERG current change (%, negative = inhibition) at 10uM” value was 34.1%.
In the case of `CCOC(=O)C1C(=O)CC(C)(O)C(C(=O)OCC)C1c1ccc(Br)o1` (centres unmarked), the “hERG current change (%, negative = inhibition) at 10uM” value is reported as -5.95%.
With `Cn1cccc1C(=O)NC(=O)CSc1nc2ccccc2s1` the “hERG current change (%, negative = inhibition) at 10uM” value was 11.6%.
For `COc1ccccc1OC(C)C(=O)N1CCN(Cc2ccc3c(c2)OCO3)CC1` (centres unmarked), the “hERG current change (%, negative = inhibition) at 10uM” value was 0.865%.
For `CCOCCCn1cc(C(=O)c2cc(Br)ccc2O)cc(C#N)c1=O`, the “hERG current change (%, negative = inhibition) at 10uM” value was -11.2%.
For `CCOC(=O)CN1N=C(/C=C/c2ccc(OC)cc2)CCC1=O`, the “hERG current change (%, negative = inhibition) at 10uM” value was 3%.
With `Cc1ccc(C2NC(=S)NC3=C2N2CCC3CC2)cc1` (centres unmarked) the “hERG current change (%, negative = inhibition) at 10uM” value was 1.2%.
For `Cc1ccc(S(=O)(=O)[N-]c2c(C)n(C)n(-c3ccccc3)c2=O)cc1.[Na+]`, the “hERG current change (%, negative = inhibition) at 10uM” value was 14.3%.
`CN(C)/C=C/C(=O)c1ccc([N+](=O)[O-])c(CS(=O)(=O)c2ccccc2)c1` was tested, and the “hERG current change (%, negative = inhibition) at 10uM” value was -26.4%.
For `Cc1noc(NS(=O)(=O)c2ccc(N/C=C\C(=O)c3ccccc3)cc2)c1C`, the “hERG current change (%, negative = inhibition) at 10uM” value was 6.25%.
`COc1cccc(N2C(=O)C(O)=C(C(C)=O)C2c2ccc(OC)c(OC)c2)c1` (centres unmarked) was tested, and the “hERG current change (%, negative = inhibition) at 10uM” value was 7.3%.
In the case of `CCOc1ccc(C(=O)N/N=C/c2ccc(SC)cc2)cc1`, the “hERG current change (%, negative = inhibition) at 10uM” value is reported as 2.51%.
For `COc1ccc(C(C(=O)NC(C)(C)C)N(Cc2ccccc2)C(=O)CCC(=O)Nc2cc(C)on2)cc1` (centres unmarked), the “hERG current change (%, negative = inhibition) at 10uM” value was 1.29%.
With `CCn1cc(C(=O)O)c(=O)c2cc(F)c(N3CCN(S(=O)(=O)c4ccc5c(c4)OCCO5)CC3)cc21` the “hERG current change (%, negative = inhibition) at 10uM” value was -14.2%.
`COCCNC(=O)COc1cccc(Oc2ccccc2)c1` was tested, and the “hERG current change (%, negative = inhibition) at 10uM” value was -5.42%.
`CC(=O)N1CCC(=NNc2ccc(S(N)(=O)=O)cc2[N+](=O)[O-])CC1` was tested, and the “hERG current change (%, negative = inhibition) at 10uM” value was 5.36%.
With `CC[N+](C)(CC)CC(O)COCC1COc2ccccc2O1.[I-]` (centres unmarked) the “hERG current change (%, negative = inhibition) at 10uM” value was 1.73%.
For `Cc1nc2ccc(NC(=S)NC(C)C)cc2nc1C`, the “hERG current change (%, negative = inhibition) at 10uM” value was -14.9%.
`Cc1ccc(/C=C/C(=O)Nc2cccc3cccnc23)o1` was tested, and the “hERG current change (%, negative = inhibition) at 10uM” value was -3.68%.
For `COc1ccc(CCNC(=O)c2ccccc2-c2ccccc2C(=O)O)cc1OC`, the “hERG current change (%, negative = inhibition) at 10uM” value was 10.2%.
With `CCn1cc(Br)c(-c2nc3ccccc3c(=O)n2N)n1` the “hERG current change (%, negative = inhibition) at 10uM” value was -2.36%.
`CCCS(=O)(=O)C(=C1NCCO1)S(=O)(=O)CCC` was tested, and the “hERG current change (%, negative = inhibition) at 10uM” value was 6.49%.
`CC1CCN(S(=O)(=O)c2ccc3ncn(CC(=O)N4CCN(C)CC4)c(=O)c3c2)CC1` was tested, and the “hERG current change (%, negative = inhibition) at 10uM” value was -16.3%.
In the case of `COc1ccc(-n2c(SC(CN3CCCCC3)CN3CCCC3=O)nc3ccccc3c2=O)cc1.Cl` (centres unmarked), the “hERG current change (%, negative = inhibition) at 10uM” value is reported as -8.82%.
